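Where inhibition never reached the appropriate level, the endpoint shown equals the highest concentration tested. Otherwise, values were interpolated linearly from a five-concentration, 48-hour dose response in 96-well plates. The concentration for 50% growth inhibition is given as GI50.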 Calls of active or inactive are those of the source. No stated cut-off is given here; in the data, active = GI50 up to about 1.1 µM and inactive = higher.

The assay concerns NCI-H322M. Description: DTP human tumour cell line panel, 48 h.
For `Cn1cc/c(=N\N=c2/ccn(C)c3ccccc23)c2ccccc21`, the GI50 is inactive: 16.6 µM.
Turning to `C/C(=C\c1ccc(Cl)cc1)C(C)(C)C(=O)O`, the GI50 was inactive: > 100 µM.
`Nc1nc(-c2cccc([N+](=O)[O-])c2)cc(-c2cc(-c3cccc([N+](=O)[O-])c3)nc(N)n2)n1`: the GI50 is inactive: > 100 µM.
Turning to `Oc1c(Br)ccc2cccnc12`, the GI50 is inactive: 7.26 µM.
The result for `COC(C)(C)CCc1[nH]c2ccccc2c1CC(=O)NCCc1cncn1C` reads inactive: > 100 µM; that for `O=C(Cc1ccccc1)NN1C(=O)/C(=C\c2ccc(O)cc2)S/C1=N\c1ccccc1`, inactive: > 100 µM; that for `CC(C)C1CN1CC(O)Cn1ccnc1[N+](=O)[O-]` (stereo unspecified), inactive: > 100 µM.
Under `CCCCC1c2c([nH]c3ccccc23)C2C(=O)N(c3ccc(OC)cc3)C(=O)C2C1CCC` (stereo unspecified) stands inactive: > 10 µM; under `COC(=O)C1(Cc2ccccc2)Cc2cc3c(cc2C1)CCC3`, inactive: 12.2 µM; under `CC(=O)NNc1nc(C)c(C(=O)NNC(=O)C(=O)Nc2cccc(C(C)=O)c2)s1`, inactive: 18 µM.
Turning to `CCOC(=O)Cn1c(=O)c2cc(C)cc3c(Cl)nc4c(OC)c(OC)cc1c4c32`, the GI50 is inactive: > 100 µM.
With `CCN(CC)C(=O)Cc1[nH][nH]c(=O)c1C(=O)N(CC)CC`, the GI50 is inactive: > 100 µM.
Under `COc1ccc(-c2cc(C(O)C3CCCCN3)c3ccccc3n2)cc1` (stereo unspecified) stands inactive: 8.22 µM; under `Nc1c2c(=O)[nH]c(=O)c2c(N)c2c(=O)c3ccccc3c(=O)c12`, inactive: 1.23 µM; under `CCOC(=O)Oc1ccc2[nH]c3c(C)cc(N)c(C)c3c2c1`, inactive: > 100 µM.
The result for `CCCCc1c2c(nc3c1CCCC3=O)CCCC2` reads inactive: > 100 µM; that for `N#C[C@@H](c1nc2ccccc2s1)c1ncccc1[N+](=O)[O-]`, inactive: 15.7 µM; that for `O=C1c2sc(-c3ccc(F)cc3)cc2-n2cccc21`, inactive: 22.3 µM.
`C=C1C(=O)O[C@@H]2[C@H](O)[C@@H](C)[C@@H]3C=CC(=O)[C@@]3(C)[C@@H](OC(=O)/C(C)=C/C)[C@H]12`: the GI50 is inactive: 2.72 µM.
Under `c1cc(CSP234N5CCN2CCN3CCN4CC5)ccc1CSP123N4CCN1CCN2CCN3CC4` stands inactive: > 100 µM.
For `O=c1[nH]c2ccc(CC(=S)N3CCCCC3)cc2s1`, the GI50 was inactive: > 100 µM.
Under `C=C1CC(Cn2cc(Br)c(=O)[nH]c2=O)(c2ccc(Br)cc2)OC1=O` (stereo unspecified) stands inactive: 14.8 µM; under `CCC(C)OC(=O)C1C2CCC(O2)C1C(=O)O` (stereo unspecified), inactive: > 100 µM; under `O=C1C(Cl)=C(OCCCl)C(=O)c2c(O)ccc(O)c21`, inactive: 15.6 µM.
`CC(c1ccccc1)N1CCN(C(C)c2ccccc2)CC1` (stereo unspecified): the GI50 is inactive: > 100 µM.
Take `O=C1C[C@H](Sc2ccccc2)C2(OCCO2)[C@@H](Sc2ccccc2)C1`: the GI50 is inactive: 6.14 µM.
Under `C=C(CCOC)CCC1CCCCC(=C)[C@H]1OC(C)=O` (stereo partly specified) stands inactive: > 100 µM; under `COc1cc2c(cc1OC)C(Cl)C(c1ccc(Cl)c(Cl)c1)=C2Cl` (stereo unspecified), inactive: 11.6 µM; under `O=C(/C=C/c1ccc([N+](=O)[O-])cc1)c1nc2ccccc2[nH]1`, inactive: > 100 µM.
Consider `OC12c3ccccc3C1CCCCCC21OCCCO1` (stereo unspecified), for which the GI50 was inactive: > 100 µM.
Regarding `C[n+]1c2ccccc2c(C(=O)NC(CCCNC(=N)N)C(=O)O)c2ccccc21` (stereo unspecified), the GI50 was inactive: > 100 µM.
Under `O=Cc1cc(O)ccc1Br` stands inactive: 38.6 µM.
Under `CC(=O)C1(Cc2cccc3ccccc23)S(=O)(=O)OCCOS1(=O)=O` stands inactive: 20.2 µM; under `COc1cc(/C=C2\N=C(c3ccccc3)N(c3ccc(C(=O)c4ccccc4)cc3N3C(=O)/C(=C/c4cc(OC)c(OC)c(OC)c4)N=C3c3ccccc3)C2=O)cc(OC)c1OC`, inactive: 27.2 µM; under `O=C1CCc2cc3c(cc21)CC1(Cc2cc4c(cc2C1)CCCC4)C3`, inactive: > 100 µM.
The result for `Cn1c2c([N+](=O)[O-])[se]nc2c(=O)n1-c1ccc([N+](=O)[O-])cc1` reads inactive: 3.47 µM.
As to `CCOC(=O)C(=O)C(C#N)c1ccc(Cl)cc1` (stereo unspecified), the GI50 was inactive: > 100 µM.
`CCOC(=O)/C(C(=O)NC(C)C)=C(/N)N1CCOCC1`: the GI50 was inactive: > 100 µM.
Turning to `CC(C)(C)c1cc(C(CO)OCCOCCO)cc(C(C)(C)C)c1O` (stereo unspecified), the GI50 was inactive: > 100 µM.
Under `COc1c(C(=O)/C(=N/Nc2ccccc2)C(C)=O)c(O)c(OC)c2occc12` stands inactive: > 100 µM.
Under `CN(C)Cc1cc(/N=N/c2c(Cl)cccc2Cl)ccc1O` stands inactive: > 100 µM; under `COC(=N)c1ncn(Cc2ccccc2)c1N`, inactive: > 100 µM; under `CN(C)Cc1cc(/N=N/c2ccc(Cl)cc2)ccc1OC(=O)c1ccccc1`, inactive: 18.1 µM.
With `Sc1nnc(-c2ccnc(-c3nnc(S)[nH]3)c2)[nH]1`, the GI50 is inactive: > 100 µM.
Under `CCCC(=O)OC[n+]1ccc2c(C)c3[nH]c4ccc(OC)cc4c3c(C)c2c1` stands active: 0.334 µM; under `Oc1ccc2ccccc2c1/N=N/c1ccc(Cl)cc1`, inactive: > 100 µM.
The result for `O=C(CSc1nc(=O)c(-c2ccccc2NC(=O)C(F)(F)F)n[nH]1)NC(=O)Nc1ccccc1` reads inactive: > 100 µM; that for `O=C1CSC(Cc2nc3ccccc3[nH]2)=N1`, inactive: 25 µM; that for `NC(=O)CCCC(NCc1c2ccccc2nc2ccccc12)C(=O)O` (stereo unspecified), inactive: > 100 µM.
For the molecule `C/C(=N\NC(=S)N(C)C)c1nc2cccnc2[nH]1`, the GI50 was active: 0.412 µM.
Turning to `CCCCCCCCCCCCCCCCOCC(CC(F)(F)P(=O)(OCC)OCC)OC(C)=O` (stereo unspecified), the GI50 is inactive: 17.1 µM.
For the molecule `CC1(C)COC2C(N(Cc3ccccc3)Cc3ccccc3)C(=O)N21` (stereo unspecified), the GI50 was inactive: 30.3 µM.
For the molecule `COc1ccc(OC)c(/C=C/C(=O)C(C)(C)C)c1`, the GI50 was inactive: 24 µM.
Under `CCOP(=O)(OCC)/C(C#N)=C/c1cccn1Cc1ccccc1` stands inactive: 38.3 µM; under `Cc1cc(C)c2c(n1)S(=O)(=O)N(CCCN1CCN(c3cccc(C(F)(F)F)c3)CC1)C(C(=O)c1ccccc1)=C2O`, inactive: 6.76 µM.
As for `COC(=O)c1cc2c(s1)C(=O)c1ccccc1-2`, the GI50 was inactive: > 100 µM.
`Cc1ccc(-c2c(C#N)c(-c3ccc([N+](=O)[O-])cc3)c(C#N)c(=O)n2NS(=O)(=O)c2ccccc2)cc1`: the GI50 was inactive: 63.5 µM.
Take `CCOC(=O)/C(O)=C1\C(=O)N(C)C(=O)C1c1ccc(OC)c(OC)c1` (stereo unspecified): the GI50 was inactive: > 100 µM.
With `CSc1nc2c3ccccc3ccn2c1C(=O)N/N=C/c1ccccc1`, the GI50 was inactive: > 47.4 µM.
The result for `Cc1c2cnccc2c(C)c2c1[nH]c1ccc(O)cc12` reads inactive: 2.01 µM; that for `Cc1ccc(Nc2nc3ccccc3nc2NS(=O)(=O)c2ccc(N)cc2)cc1`, inactive: > 100 µM; that for `COc1cc(CCCOC2OC(COC3OCC(O)C(O)C3O)C(O)C(O)C2O)cc2cc(-c3ccc4c(c3)OCO4)oc12` (stereo unspecified), inactive: > 175 µM.
Consider `O=C(CC/C(CC(=O)c1ccc(Br)cc1)=N\O)Nc1ccc(Cl)c(Cl)c1`, for which the GI50 is inactive: > 100 µM.
The result for `O=C(c1ccccc1)N1C(=S)NC(=N/c2ccccc2)/C1=N\c1ccccc1` reads inactive: > 100 µM; that for `COc1ccc2cc1Oc1ccc(cc1)CC1c3cc(OC)c(cc3CCN1C)Oc1c(OC)c(OC)cc3c1C(C2)N(C)CC3` (stereo unspecified), inactive: 21.3 µM.
Regarding `Cc1ccc(Nc2n[nH]c(NS(=O)(=O)c3cc(C(=O)Nc4ccc(Cl)cc4)c(Cl)cc3S)n2)cc1`, the GI50 was inactive: 88.5 µM.
On to `CCCCN(C(=O)c1ccccc1)C1CCC(=O)c2[nH]c3ccccc3c21` (stereo unspecified), for which the GI50 is inactive: 42.7 µM.
Regarding `O=C(Cl)c1cc([N+](=O)[O-])cc([N+](=O)[O-])c1`, the GI50 is inactive: > 100 µM.
In the case of `N#Cc1c(-c2ccccc2)cn(C(=O)c2ccccc2)c1N`, the GI50 was inactive: > 100 µM.
Under `CCOC(=O)c1c2ccccc2n2c(=O)n(-c3ccccc3)nnc12` stands inactive: > 100 µM; under `COc1nc2[nH]ccc2c(=O)n1C`, inactive: > 100 µM.
The result for `CN(C)c1ccc2nc(CC(O)(C(F)(F)F)C(F)(F)F)ccc2c1` reads inactive: > 10 µM; that for `Cc1c2cccc-2ccc2c3ccccc3n(C(=O)c3ccc(Cl)cc3)c12`, inactive: > 100 µM.
As to `CN(C)C(=S)SCC(N)=O`, the GI50 was inactive: > 100 µM.
Take `Nc1cc[nH]c(=O)n1`: the GI50 was inactive: > 100 µM.
Under `CCCCCCCCC(O)c1ccc(/C=C\C(O)CCCC(=O)O)s1` (stereo unspecified) stands inactive: > 100 µM; under `CCOC(=O)C(C(=O)OCC)P(=S)(S)c1ccccc1` (stereo unspecified), inactive: > 100 µM; under `C=C(C=O)[C@@H]1C2OC(=O)C(=C)[C@@H]2CC(O)[C@@]1(C)CC` (stereo partly specified), inactive: 14.9 µM.
Consider `OC[C@@H](O)[C@H]1NC[C@@H](O)[C@H]1O`, for which the GI50 is inactive: > 100 µM.
`CC(C)(C)c1cc(C(=O)/C=C/c2ccc(C(=O)O)cc2)cc(C(C)(C)C)c1`: the GI50 is inactive: 2.84 µM.
On to `Cc1c2cccc-2ccc2c1[nH]c1ccc(Br)cc12`, for which the GI50 was inactive: 13 µM.
As to `COc1cccc(C(=O)N[C@@H]2[C@H](O)[C@@H](CO)O[C@H]2n2cnc3c(N)ncnc32)c1`, the GI50 is inactive: > 100 µM.
Regarding `Oc1ccc(-c2nc(-c3cccnc3)c(-c3ccc(Cl)cc3)[nH]2)cc1`, the GI50 is inactive: 14.5 µM.
The result for `CC1=NN(C(=O)c2ccc(Cl)cc2)C(=O)C1/N=N/c1ccc(S(=O)(=O)Nc2ncccn2)cc1` (stereo unspecified) reads inactive: 57.8 µM; that for `Oc1cc(-c2ccccc2)nc2c(S)cccc12`, inactive: > 100 µM; that for `COc1cc(OC)c2c(=O)c(O)c(-c3ccc(OC)c(OC)c3)oc2c1`, inactive: 5.19 µM.

One may read the GI50 as the concentration giving 50% growth inhibition.

The values above are taken from ChEMBL document CHEMBL1201862, “PubChem BioAssay data set” (2004).
